In ChEMBL document CHEMBL4888484, “Replenishing the malaria drug discovery pipeline: Screening and hit evaluation of the MMV Hit Generation Library 1 (HGL1) against asexual blood stage Plasmodium falciparum ,using a nano luciferase reporter read-out” (2022):
Among all 150,000 compounds or so, about 540 (0.36%) showed an effect of 50% or more. Some of the results follow.

Tested on: Plasmodium falciparum
Assay: Primary screen in NF54 nanoGlo assay, in single point, at 2uM, 72h; a lower Z score goes with more inhibition
Assay type: functional, Erythrocyte
Details: timepoint 72 hour

Point of comparison: C[C@@H]1Oc2ccc(NC(=O)CCC(=O)c3ccc(Cl)cc3)cc2NC1=O, “% Inhibition” value -7%. Against it:
- COc1cc(C)c(S(=O)(=O)Oc2cc(C)nc3ccccc23)cc1C — lower, -10%
- CCCS(=O)(=O)NC(=O)c1cccc(Br)c1Cl — higher, -3%
- O=C1c2ccccc2C(=O)N1c1ccc(N2C(=O)C3C4CCC(C4)C3C2=O)cc1 (configuration not stated) — higher, 3%
- N#Cc1cc2c([nH]c1=O)CCN(C(=O)c1cnn(-c3ccccc3)n1)C2 — the same, -7%
- Cc1cnc(C(=O)N(C)C2CCCC2)cn1 — higher, -5%
- CCOc1ccc(N2C[C@@H](C(=O)N(C)CC(=O)NCc3ccco3)CC2=O)cc1 — higher, 0%
- CCc1nc2cc(NC(=O)C[C@H]3C(=O)NCCN3Cc3ccccc3)ccc2n1CC — lower, -17%
- Cc1ccc(C)c(CN(CCc2c[nH]c3ccccc23)Cc2nc(C(=O)NCC3CC3)co2)c1 — higher, -5%
- N#Cc1ncc(Cl)cc1Br — lower, -14%
- Cc1cc(C(=O)Nc2nncs2)c2c(-c3ccccc3F)noc2n1 — higher, -3%
- C[C@@H](Cc1cnccn1)N(C)C(=O)CN1CCOC1=O — lower, -15%
- C[C@H](NCc1cccc2c1OCO2)c1cccc(CO)c1 — higher, 3%
- O=C(N1CCOC[C@@H]1CO)C1(c2ccccc2)CCOCC1 — the same, -7%
- COCCO[C@@H](C)c1nnc2n1CCN(C(=O)OC(C)(C)C)C(C)(C)C2 — higher, 0%
- C[C@H]1CCCN(C(=O)CCC(=O)c2cnn(C)c2)c2ccccc21 — higher, 7%
- Cc1ccc(CNC(=O)CCc2cccs2)s1 — higher, 3%
- Cc1cnc([C@H](C)NC(=O)NCc2cnccn2)s1 — higher, 11%
- COc1ccc2c(c1)C(N1CCN(S(=O)(=O)c3cccc(C)c3)[C@@H](C)C1)=Nc1ccccc1O2 — higher, 3%
- O=c1[nH]nc(Cn2ccnc2)n1Cc1ccc(Cl)cc1Cl — higher, 0%
- COC(=O)N1CCCC[C@H]1C(=O)N1CCC2(CCCC2)C1 — the same, -7%
- Cn1nccc1-c1cncc(CNC(=O)c2nc(-c3cccs3)cs2)c1 — higher, 11%
- CC(C)(C)[C@@H](C#N)OC(=O)c1cccc(F)c1 — lower, -10%
- CN(C)c1ccc(NC(=O)Cn2cc(S(=O)(=O)N3CCOCC3)ccc2=O)cc1 — higher, -1%
- Cc1cc(=O)n(CC(=O)N2CCC3(CC2)CC(=O)N(CC(C)C)C3)nc1C — higher, 1%
- CC(C)Nc1cc(N(C)Cc2ccn[nH]2)nc(N)n1 — lower, -16%
- CC[C@H](O)C1CCN(CCS(C)(=O)=O)CC1 — higher, 2%
- CC1CCc2nc(C(=O)NC(CCO)C(C)C)cn2C1 (configuration not stated) — higher, -1%
- Cc1ccc(Cc2nc(-c3ccc4c(c3)[nH]c(=O)n4C3CCCC3)no2)cc1 — higher, 7%
- CCc1ccc(CNc2cccc(NC(=O)OCCOC)c2)o1 — higher, 8%
- COCCOC[C@H](C)Nc1cc(OC)c(Cl)cc1OC — higher, 6%
- CC(C)(C)c1ccc(OCC(=O)N2CCCC[C@@H]2CCN2CCCCC2)cc1 — higher, -4%
- c1ccc2c(c1)ncn2[C@H]1CCN(c2cc(C3CCC3)ncn2)C1 — the same, -7%
- Cc1noc2ncnc(NC[C@@H]3C[C@H](CO)N(C)[C@@H]3c3ccccc3F)c12 — lower, -25%
- C=CCC(O)(CC=C)CNC(=O)C1(N)CCCC1 — higher, -5%
- Cc1cc(NCc2ccc(S(N)(=O)=O)cc2C)nc(C2CCC2)n1 — lower, -11%
- Cc1cc(F)ccc1S(=O)(=O)N1CC[C@H](c2ncccn2)C1 — lower, -18%
- COCCc1noc(COc2cccnc2C)n1 — higher, -1%
- CCN1C(=O)CC[C@H](C(=O)N2CC(F)C2)[C@H]1c1ccncc1 — the same, -7%
- CCCCCOc1ccc(C2(C)C(=O)N(CN3CCOCC3)C(=O)C2CN2CCOCC2)cc1 (configuration not stated) — higher, 3%
- CCCN(Cc1c(-c2cccc(C)c2)noc1N1CCOCC1)C(=O)c1ccccc1 — higher, 1%

Point of comparison: Cc1noc2ncnc(NC[C@@H]3C[C@H](CO)N(C)[C@@H]3c3ccccc3F)c12, Z score 2.22. Against it:
- COc1cc(C)c(S(=O)(=O)Oc2cc(C)nc3ccccc23)cc1C — lower, 1.84
- CCCS(=O)(=O)NC(=O)c1cccc(Br)c1Cl — lower, 0.28
- O=C1c2ccccc2C(=O)N1c1ccc(N2C(=O)C3C4CCC(C4)C3C2=O)cc1 (configuration not stated) — lower, -0.41
- N#Cc1cc2c([nH]c1=O)CCN(C(=O)c1cnn(-c3ccccc3)n1)C2 — lower, 1.11
- Cc1cnc(C(=O)N(C)C2CCCC2)cn1 — lower, 0.85
- CCOc1ccc(N2C[C@@H](C(=O)N(C)CC(=O)NCc3ccco3)CC2=O)cc1 — lower, 0.04
- CCc1nc2cc(NC(=O)C[C@H]3C(=O)NCCN3Cc3ccccc3)ccc2n1CC — lower, 1.74
- Cc1ccc(C)c(CN(CCc2c[nH]c3ccccc23)Cc2nc(C(=O)NCC3CC3)co2)c1 — lower, 0.84
- N#Cc1ncc(Cl)cc1Br — lower, 1.56
- Cc1cc(C(=O)Nc2nncs2)c2c(-c3ccccc3F)noc2n1 — lower, 0.39
- C[C@@H](Cc1cnccn1)N(C)C(=O)CN1CCOC1=O — lower, 1.87
- C[C@H](NCc1cccc2c1OCO2)c1cccc(CO)c1 — lower, -0.38
- O=C(N1CCOC[C@@H]1CO)C1(c2ccccc2)CCOCC1 — lower, 1.02
- COCCO[C@@H](C)c1nnc2n1CCN(C(=O)OC(C)(C)C)C(C)(C)C2 — lower, 0
- C[C@H]1CCCN(C(=O)CCC(=O)c2cnn(C)c2)c2ccccc21 — lower, -0.92
- Cc1ccc(CNC(=O)CCc2cccs2)s1 — lower, -0.42
- Cc1cnc([C@H](C)NC(=O)NCc2cnccn2)s1 — lower, -1.27
- COc1ccc2c(c1)C(N1CCN(S(=O)(=O)c3cccc(C)c3)[C@@H](C)C1)=Nc1ccccc1O2 — lower, -0.41
- O=c1[nH]nc(Cn2ccnc2)n1Cc1ccc(Cl)cc1Cl — lower, -0.08
- COC(=O)N1CCCC[C@H]1C(=O)N1CCC2(CCCC2)C1 — lower, 1.14
- Cn1nccc1-c1cncc(CNC(=O)c2nc(-c3cccs3)cs2)c1 — lower, -1.43
- CC(C)(C)[C@@H](C#N)OC(=O)c1cccc(F)c1 — lower, 0.86
- CN(C)c1ccc(NC(=O)Cn2cc(S(=O)(=O)N3CCOCC3)ccc2=O)cc1 — lower, 0.23
- Cc1cc(=O)n(CC(=O)N2CCC3(CC2)CC(=O)N(CC(C)C)C3)nc1C — lower, -0.19
- CC(C)Nc1cc(N(C)Cc2ccn[nH]2)nc(N)n1 — lower, 2.01
- CC[C@H](O)C1CCN(CCS(C)(=O)=O)CC1 — lower, -0.27
- CC1CCc2nc(C(=O)NC(CCO)C(C)C)cn2C1 (configuration not stated) — lower, 0.2
- Cc1ccc(Cc2nc(-c3ccc4c(c3)[nH]c(=O)n4C3CCCC3)no2)cc1 — lower, -0.99
- CCc1ccc(CNc2cccc(NC(=O)OCCOC)c2)o1 — lower, -1.05
- COCCOC[C@H](C)Nc1cc(OC)c(Cl)cc1OC — lower, -1.29
- CC(C)(C)c1ccc(OCC(=O)N2CCCC[C@@H]2CCN2CCCCC2)cc1 — lower, 0.6
- c1ccc2c(c1)ncn2[C@H]1CCN(c2cc(C3CCC3)ncn2)C1 — lower, 1.37
- C[C@@H]1Oc2ccc(NC(=O)CCC(=O)c3ccc(Cl)cc3)cc2NC1=O — lower, 0.86
- C=CCC(O)(CC=C)CNC(=O)C1(N)CCCC1 — lower, 0.61
- Cc1cc(NCc2ccc(S(N)(=O)=O)cc2C)nc(C2CCC2)n1 — lower, 1.74
- Cc1cc(F)ccc1S(=O)(=O)N1CC[C@H](c2ncccn2)C1 — lower, 2.21
- COCCc1noc(COc2cccnc2C)n1 — lower, 0.1
- CCN1C(=O)CC[C@H](C(=O)N2CC(F)C2)[C@H]1c1ccncc1 — lower, 1.41
- CCCCCOc1ccc(C2(C)C(=O)N(CN3CCOCC3)C(=O)C2CN2CCOCC2)cc1 (configuration not stated) — lower, -0.43
- CCCN(Cc1c(-c2cccc(C)c2)noc1N1CCOCC1)C(=O)c1ccccc1 — lower, -0.14
